# Data published in the supplement of paper PMC8728848.
# This is one part of the list.
# Assays:
# Experiment in all cases: glycan array binding signal (z-score within array); higher = stronger binding
# Conditions in all cases: glycan notation: IUPAC condensed, linker removed; mutation: I144G
# [1] = biological target: Gal(b1-4)GlcNAc(b1-2)[Gal(b1-4)GlcNAc(b1-6)]Man(a1-6)[Gal(b1-4)GlcNAc(b1-2)Man(a1-3)]Man(b1-4)GlcNAc(b1-4)[Fuc(a1-6)]GlcNAc
# Outline: (§1)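 Glycan array data came from 3228 arrays in the Consortium for Functional Glycomics database, and only arrays with an available protein sequence were kept. Glycan names were put into IUPAC-condensed notation, and columns mapping to the same glycan were averaged. The binding signal is a within-array Z-score, averaged across arrays of one protein sequence run at different concentrations or buffers and across linkers. A negative Z-score can be read as non-binding.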
# [2] = biological target: Gal(b1-4)GlcNAc(b1-2)[Gal(b1-4)GlcNAc(b1-6)]Man(a1-6)[GlcNAc(b1-4)][Gal(b1-4)GlcNAc(b1-2)Man(a1-3)]Man(b1-4)GlcNAc(b1-4)GlcNAc
# Outline: as §1
# [3] = biological target: Gal(b1-4)GlcNAc(b1-2)[Gal(b1-4)GlcNAc(b1-6)]Man(a1-6)[GlcNAc(b1-4)][Gal(b1-4)GlcNAc(b1-2)[Gal(b1-4)GlcNAc(b1-4)]Man(a1-3)]Man(b1-4)GlcNAc(b1-4)[Fuc(a1-6)]GlcNAc
# Outline: as §1
# [4] = biological target: Gal(b1-4)GlcNAc(b1-3)Gal(b1-3)GalNAc
# Outline: as §1
# [5] = biological target: Gal(b1-4)GlcNAc(b1-3)Gal(b1-3)GlcNAc
# Outline: as §1
# [6] = biological target: Gal(b1-4)GlcNAc(b1-3)Gal(b1-4)Glc
# Outline: as §1
# [7] = biological target: Gal(b1-4)GlcNAc(b1-3)Gal(b1-4)GlcNAc
# Outline: as §1
# [8] = biological target: Gal(b1-4)GlcNAc(b1-3)Gal(b1-4)GlcNAc(b1-2)Man(a1-3)[Gal(b1-4)GlcNAc(b1-3)Gal(b1-4)GlcNAc(b1-2)Man(a1-6)]Man(b1-4)GlcNAc(b1-4)GlcNAc
# Outline: as §1
# [9] = biological target: Gal(b1-4)GlcNAc(b1-3)Gal(b1-4)GlcNAc(b1-2)Man(a1-3)[Gal(b1-4)GlcNAc(b1-3)Gal(b1-4)GlcNAc(b1-2)Man(a1-6)]Man(b1-4)GlcNAc(b1-4)[Fuc(a1-6)]GlcNAc
# Outline: as §1
# [10] = biological target: Gal(b1-4)GlcNAc(b1-3)Gal(b1-4)GlcNAc(b1-2)[Gal(b1-4)GlcNAc(b1-3)Gal(b1-4)GlcNAc(b1-6)]Man(a1-6)[Gal(b1-4)GlcNAc(b1-3)Gal(b1-4)GlcNAc(b1-2)Man(a1-3)]Man(b1-4)GlcNAc(b1-4)GlcNAc
# Outline: as §1
# [11] = biological target: Gal(b1-4)GlcNAc(b1-3)Gal(b1-4)GlcNAc(b1-2)[Gal(b1-4)GlcNAc(b1-3)Gal(b1-4)GlcNAc(b1-6)]Man(a1-6)[Gal(b1-4)GlcNAc(b1-3)Gal(b1-4)GlcNAc(b1-2)Man(a1-3)]Man(b1-4)GlcNAc(b1-4)[Fuc(a1-6)]GlcNAc
# Outline: as §1
# [12] = biological target: Gal(b1-4)GlcNAc(b1-3)Gal(b1-4)GlcNAc(b1-3)Gal(b1-4)GlcNAc
# Outline: as §1
# [13] = biological target: Gal(b1-4)GlcNAc(b1-3)Gal(b1-4)GlcNAc(b1-3)Gal(b1-4)GlcNAc(b1-2)Man(a1-3)[Gal(b1-4)GlcNAc(b1-3)Gal(b1-4)GlcNAc(b1-3)Gal(b1-4)GlcNAc(b1-2)Man(a1-6)]Man(b1-4)GlcNAc(b1-4)GlcNAc
# Outline: as §1
# [14] = biological target: Gal(b1-4)GlcNAc(b1-3)Gal(b1-4)GlcNAc(b1-3)Gal(b1-4)GlcNAc(b1-2)Man(a1-3)[Gal(b1-4)GlcNAc(b1-3)Gal(b1-4)GlcNAc(b1-3)Gal(b1-4)GlcNAc(b1-2)Man(a1-6)]Man(b1-4)GlcNAc(b1-4)[Fuc(a1-6)]GlcNAc
# Outline: as §1
# [15] = biological target: Gal(b1-4)GlcNAc(b1-3)Gal(b1-4)GlcNAc(b1-3)Gal(b1-4)GlcNAc(b1-2)[Gal(b1-4)GlcNAc(b1-3)Gal(b1-4)GlcNAc(b1-3)Gal(b1-4)GlcNAc(b1-6)]Man(a1-6)[Gal(b1-4)GlcNAc(b1-3)Gal(b1-4)GlcNAc(b1-3)Gal(b1-4)GlcNAc(b1-2)Man(a1-3)]Man(b1-4)GlcNAc(b1-4)[Fuc(a1-6)]GlcNAc
# Outline: as §1
# [16] = biological target: Gal(b1-4)GlcNAc(b1-3)Gal(b1-4)GlcNAc(b1-3)Gal(b1-4)GlcNAc(b1-3)Gal(b1-4)GlcNAc(b1-2)Man(a1-3)[Gal(b1-4)GlcNAc(b1-3)Gal(b1-4)GlcNAc(b1-3)Gal(b1-4)GlcNAc(b1-3)Gal(b1-4)GlcNAc(b1-2)Man(a1-6)]Man(b1-4)GlcNAc(b1-4)GlcNAc
# Outline: as §1
# [17] = biological target: Gal(b1-4)GlcNAc(b1-3)Gal(b1-4)GlcNAc(b1-3)Gal(b1-4)GlcNAc(b1-3)Gal(b1-4)GlcNAc(b1-2)Man(a1-3)[Gal(b1-4)GlcNAc(b1-3)Gal(b1-4)GlcNAc(b1-3)Gal(b1-4)GlcNAc(b1-3)Gal(b1-4)GlcNAc(b1-2)Man(a1-6)]Man(b1-4)GlcNAc(b1-4)[Fuc(a1-6)]GlcNAc
# Outline: as §1
# [18] = biological target: Gal(b1-4)GlcNAc(b1-3)Gal(b1-4)GlcNAc(b1-3)Gal(b1-4)GlcNAc(b1-3)Gal(b1-4)GlcNAc(b1-2)[Gal(b1-4)GlcNAc(b1-3)Gal(b1-4)GlcNAc(b1-3)Gal(b1-4)GlcNAc(b1-3)Gal(b1-4)GlcNAc(b1-6)]Man(a1-6)[Gal(b1-4)GlcNAc(b1-3)Gal(b1-4)GlcNAc(b1-3)Gal(b1-4)GlcNAc(b1-3)Gal(b1-4)GlcNAc(b1-2)Man(a1-3)]Man(b1-4)GlcNAc(b1-4)[Fuc(a1-6)]GlcNAc
# Outline: as §1
# [19] = biological target: Gal(b1-4)GlcNAc(b1-3)Gal(b1-4)GlcNAc(b1-3)Gal(b1-4)GlcNAc(b1-3)Gal(b1-4)GlcNAc(b1-3)Gal(b1-4)GlcNAc(b1-2)Man(a1-3)[Gal(b1-4)GlcNAc(b1-3)Gal(b1-4)GlcNAc(b1-3)Gal(b1-4)GlcNAc(b1-3)Gal(b1-4)GlcNAc(b1-3)Gal(b1-4)GlcNAc(b1-2)Man(a1-6)]Man(b1-4)GlcNAc(b1-4)GlcNAc
# Outline: as §1
# [20] = biological target: Gal(b1-4)GlcNAc(b1-3)Gal(b1-4)GlcNAc(b1-3)Gal(b1-4)GlcNAc(b1-3)Gal(b1-4)GlcNAc(b1-3)Gal(b1-4)GlcNAc(b1-2)Man(a1-3)[Gal(b1-4)GlcNAc(b1-3)Gal(b1-4)GlcNAc(b1-3)Gal(b1-4)GlcNAc(b1-3)Gal(b1-4)GlcNAc(b1-3)Gal(b1-4)GlcNAc(b1-2)Man(a1-6)]Man(b1-4)GlcNAc(b1-4)[Fuc(a1-6)]GlcNAc
# Outline: as §1
# [21] = biological target: Gal(b1-4)GlcNAc(b1-3)Gal(b1-4)GlcNAc(b1-3)Gal(b1-4)GlcNAc(b1-3)Gal(b1-4)GlcNAc(b1-3)Gal(b1-4)GlcNAc(b1-2)[Gal(b1-4)GlcNAc(b1-3)Gal(b1-4)GlcNAc(b1-3)Gal(b1-4)GlcNAc(b1-3)Gal(b1-4)GlcNAc(b1-3)Gal(b1-4)GlcNAc(b1-6)]Man(a1-6)[Gal(b1-4)GlcNAc(b1-3)Gal(b1-4)GlcNAc(b1-3)Gal(b1-4)GlcNAc(b1-3)Gal(b1-4)GlcNAc(b1-3)Gal(b1-4)GlcNAc(b1-2)Man(a1-3)]Man(b1-4)GlcNAc(b1-4)[Fuc(a1-6)]GlcNAc
# Outline: as §1
# [22] = biological target: Gal(b1-4)GlcNAc(b1-3)Gal(b1-4)GlcNAc(b1-3)Gal(b1-4)GlcNAc(b1-3)Gal(b1-4)GlcNAc(b1-3)Gal(b1-4)GlcNAc(b1-3)Gal(b1-4)GlcNAc(b1-2)Man(a1-3)[Gal(b1-4)GlcNAc(b1-3)Gal(b1-4)GlcNAc(b1-3)Gal(b1-4)GlcNAc(b1-3)Gal(b1-4)GlcNAc(b1-3)Gal(b1-4)GlcNAc(b1-3)Gal(b1-4)GlcNAc(b1-2)Man(a1-6)]Man(b1-4)GlcNAc(b1-4)GlcNAc
# Outline: as §1
# [23] = biological target: Gal(b1-4)GlcNAc(b1-3)Gal(b1-4)GlcNAc(b1-3)GalNAc
# Outline: as §1
binder,measurement,setting,value
"rAAL-I144G (Agrocybe aegerita), Q6WY08 (protein) MQGVNIYNISAGTSVDLAAPVTTGDIVTFFSSALNLNAGAGNPNNTTLNLFAENGAYLLHIAFRLQENVIIFNSRQPDGPWLVEQRVSDVANQFAGIDGKAMVTVFDHGDKYQVVINEKTVIQYTKQISGLTLSLSYNATEETSGFSTVVEAVTYTGLALEHHHHHH",glycan array binding signal (z-score),[1],-0.055
same,glycan array binding signal (z-score),[2],-0.193
same,glycan array binding signal (z-score),[3],-0.066
same,glycan array binding signal (z-score),[4],-0.191
same,glycan array binding signal (z-score),[5],-0.158
same,glycan array binding signal (z-score),[6],-0.137
same,glycan array binding signal (z-score),[7],-0.165
same,glycan array binding signal (z-score),[8],-0.037
same,glycan array binding signal (z-score),[9],-0.086
same,glycan array binding signal (z-score),[10],-0.018
same,glycan array binding signal (z-score),[11],-0.052
same,glycan array binding signal (z-score),[12],-0.095
same,glycan array binding signal (z-score),[13],-0.097
same,glycan array binding signal (z-score),[14],-0.083
same,glycan array binding signal (z-score),[15],-0.051
same,glycan array binding signal (z-score),[16],-0.129
same,glycan array binding signal (z-score),[17],-0.063
same,glycan array binding signal (z-score),[18],-0.077
same,glycan array binding signal (z-score),[19],-0.082
same,glycan array binding signal (z-score),[20],-0.125
same,glycan array binding signal (z-score),[21],0.008
same,glycan array binding signal (z-score),[22],-0.04
same,glycan array binding signal (z-score),[23],-0.054
